The structures appear in SMILES notation. Screen size: about 340,000 compounds; about 6,900 (2%) were called active. Rule as the data show it: active = inhibition above about 30%; inactive = below that, where a call was filed. The list shows a part of the results, in another mix than the full data. Entries without a call were filed so in the source.

The target in this test is D(2) dopamine receptor (Homo sapiens) (UniProt P14416). The test is described as follows: HTS Assay for Allosteric Antagonists of the Human D2 Dopamine Receptor: Primary Screen for Antagonists. Also: 0% is about no effect. The following applies: HEK293 TREx D2 cells, calcium flux, dopamine EC80; at 10 µM; stronger effect = higher value. In short, it runs like this: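 Read-out: kinetic calcium fluorescence (1 cycle/s) in inducible HEK293 T-REx D2 cells after an EC80 dopamine addition that followed 180 s compound preincubation. Loss of the dopamine response indicates antagonism.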
Sequence of UniProt P14416 (P14416 whole entry, looked up): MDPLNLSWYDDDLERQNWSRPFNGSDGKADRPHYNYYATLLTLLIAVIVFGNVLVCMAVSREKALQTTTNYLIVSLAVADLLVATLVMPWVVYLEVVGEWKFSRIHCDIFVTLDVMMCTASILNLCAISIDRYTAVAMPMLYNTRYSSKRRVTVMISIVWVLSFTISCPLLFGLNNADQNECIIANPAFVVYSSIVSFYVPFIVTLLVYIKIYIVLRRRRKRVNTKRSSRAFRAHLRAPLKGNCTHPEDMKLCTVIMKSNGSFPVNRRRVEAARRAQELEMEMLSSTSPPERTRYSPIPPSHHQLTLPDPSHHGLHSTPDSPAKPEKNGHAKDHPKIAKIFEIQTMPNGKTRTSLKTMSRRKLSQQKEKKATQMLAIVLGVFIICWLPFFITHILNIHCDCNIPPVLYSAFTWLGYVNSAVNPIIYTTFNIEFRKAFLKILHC
On the technique in general: Calcium flux is commonly read through the fluorescence of an indicator in the cells.
The term inhibition denotes the drop in the measured response relative to a control, in per cent. Consider `c1cc2c(cc1C1=Nn3c(nnc3C3CCCCC3)SC1)OCO2`, for which the inhibition was active: 33.3%.
With `Cc1ccc(OCCCCn2c(-c3ccc(Cl)cc3)nc3ccccc3c2=O)cc1` the figure was 10.9%.
As for `CCCCSc1[nH]c(=O)c(C(=O)OCC)cc1C#N`, the inhibition was active: 30.2%.
Regarding `CC(C)c1ccc(NC(=O)Cn2nnc(C(=O)NCc3ccc4c(c3)OCO4)c2N)cc1`, the inhibition is -4.27%.
For the molecule `Cc1ccc(C(=O)Nc2c(C(=O)Nc3ccc(C)c(C)c3)sc3nc(C)cc(C)c23)cc1`, the inhibition came out at 10.6%.
The result for `Cc1ccc(-c2noc(-c3ccc(N4CCCC4)c([N+](=O)[O-])c3)n2)cc1` reads 6.87%.
For `CCCc1cc(=O)[nH]c(SCc2nc(-c3ccc(OCC)cc3)no2)n1`, the inhibition is -4.45%.
`Cc1c(-c2ccccc2)c(=O)oc2c(CN3CCOCC3)c(O)ccc12`: the inhibition was 1.32%.
As to `Cc1ccc(C2C=C(c3ccccc3)Nc3nc(NS(C)(=O)=O)nn32)cc1` (stereo not given), the inhibition is -12.2%.
Turning to `CCc1cccc(C)c1NC(=O)CSc1nc2ccncc2[nH]1`, the inhibition was found to be 0.074%.
As for `O=C1Nc2cc(C(=O)N3CCOCC3)ccc2S/C1=C\c1ccccc1`, the inhibition is active: 47.4%.
Take `COc1ccc(NC(=O)C2CCN(c3cc(C)nc4c(-c5ccc(Cl)cc5)c(C)nn34)CC2)cc1`: the inhibition was -18.2%.
Consider `CCOc1ccc(C2C(C(=O)Nc3ccc(OC)cc3)=C(C)Nc3nc(CCCO)nn32)cc1` (stereo not given), for which the inhibition turned out to be 8.8%.
With `O=C(NCc1ccccc1CN1CCCC1)c1cccc(S(=O)(=O)N2CCOCC2)c1` the figure was active: 49.4%; with `Cc1nn(S(=O)(=O)c2ccc(F)cc2)c(C)c1S(=O)(=O)N1CCCCCC1`, -12.3%; with `COc1cc(-c2cc(OC)c3c(C)oc(C)c3c(=O)c2)ccc1OC(=O)c1cccc(C)c1`, 4.44%.
`Cc1ccc(CNC(=O)c2ccc3c(c2)c(C)c(C)n3Cc2ccc(Cl)cc2)o1`: the inhibition was 7.41%.
Regarding `CCOC(=O)c1ccc(N2C(=O)c3n[nH]c(-c4ccco4)c3C2c2ccccc2OC)cc1` (stereo not given), the inhibition was -7.47%.
With `COc1ccc(N(C)S(=O)(=O)c2ccc3c(c2)CCN3C(=O)CCC(=O)O)cc1` the figure was -19.6%; with `Cc1ccc(NC(=O)Cn2c(=O)n(Cc3ccccc3)c(=O)c3c(C)c(C(=O)N(C)C)sc32)c(C)c1`, 7.5%; with `COc1ccc(NC(=O)c2ccco2)cc1NC(=O)c1ccccc1[N+](=O)[O-]`, 4.47%.
`CCN1/C(=C/C=C/c2oc3ccc(-c4ccccc4)cc3[n+]2CC)Oc2ccc(-c3ccccc3)cc21`: the inhibition is active: 75.8%.
Consider `CCN1CCc2c(sc(-n3cccc3)c2C(C)NC(=O)Nc2ccc(C(=O)OC)cc2)C1` (stereo not given), for which the inhibition turned out to be 3.55%.
Take `COc1ccc(C)c2sc(N(Cc3cccnc3)C(=O)c3cccs3)nc12`: the inhibition is -16.5%.
On to `Cc1ccc(NC(=O)Cn2cc3c(n2)CCCC3)cc1Cl`, for which the inhibition came to 8.23%.
Consider `COC(=O)c1c(C)oc2ccc(N(C(=O)c3ccncc3)S(=O)(=O)c3ccc(Br)cc3)cc12`, for which the inhibition is -8.07%.
For `COc1ccc(CNC(=O)c2nn(C)c3c2CSc2ccccc2-3)cc1`, the inhibition is 15.2%.
Consider `O=C(Nc1cccc(F)c1)c1cnc2sc(N3CCCC3)nn2c1=O`, for which the inhibition is -6.05%.
In the case of `COc1cc(C2C=C(C(=O)O)Nc3ncnn32)ccc1O` (stereo not given), the inhibition was -4.39%.
For the molecule `CCOc1ccc2c(c1)c(=O)c(C(=O)c1ccc(CC)cc1)cn2CC(=O)Nc1ccc2c(c1)OCCO2`, the inhibition is 20.8%.
With `COc1cccc(NC(=O)Cn2c(=O)n(CCC(=O)NCc3ccccc3OC)c(=O)c3ccccc32)c1` the figure was 0.925%; with `CCN(CC)CCOC(=O)c1ccc(NC(=O)CCCN2C(=O)/C(=C/c3cccs3)SC2=S)cc1`, active: 48.9%; with `COc1ccc(Cl)cc1NC(=O)Cn1c(=O)n2nc(-c3ccccc3)nc2c2ccccc21`, 2.67%.
For `O=C(NCCc1cccs1)c1ccc(Cn2c(SCc3cccc(F)c3)nc3cccnc32)cc1`, the inhibition is -6.26%.
The result for `CCNc1nc2c(c(=O)n(C)c(=O)n2C)n1Cc1ccc(F)cc1` reads 4.18%; that for `O=C(Cn1cc(C(=O)c2ccco2)c2ccccc21)Nc1ccccc1C(F)(F)F`, 9.21%; that for `Cc1ccc(CSC2=NC(C)(C)Nc3ccccc32)c(C)c1`, 8.82%.
The result for `COc1ccc(-c2csc3ncnc(Nc4ccccc4)c23)cc1` reads 6.96%; that for `Cc1ccccc1S(=O)Cc1ccc(C(=O)NCc2ccccc2Cl)o1` (stereo not given), -14.8%.
With `Fc1cccc(CN2CCc3nc(Nc4ccc5c(c4)OCCO5)ncc3C2)c1F` the figure was -1.14%; with `O=C(CSc1ccc2ccccc2c1)NCCc1ccc(O)c(O)c1`, active: 51.2%.
Consider `CCOC(=O)c1c(-c2ccccc2)oc2ccc(OCc3ccccc3Br)cc12`, for which the inhibition was -5.03%.
With `CCOc1ccccc1NC(=O)Cn1c(=O)oc2ccccc21` the figure was 5.95%; with `COc1ccc(-c2noc(N3CCC(C(=O)N4CCN(c5cccc(OC)c5)CC4)CC3)n2)cc1`, 11.7%.
On to `COc1ccc(NC(=O)Cn2cc(C(=O)c3ccc(C)c(C)c3)c(=O)c3cc(OC)ccc32)cc1`, for which the inhibition was found to be 0.454%.
For the molecule `Clc1cccc(CNCCCSc2nnnn2-c2ccccc2)c1`, the inhibition turned out to be 14.9%.
`COC(=O)c1scc(-c2ccc(C)cc2)c1S(=O)(=O)Nc1cc(C)c(Cl)cc1OC`: the inhibition was found to be 3.6%.
With `Cc1cccc(N2CCN(C(=O)CCS(=O)(=O)c3ccc4c(c3)CC(=O)N4C)CC2C)c1` (stereo not given) the figure was 0.411%; with `Cc1ccc(NS(=O)(=O)c2ccc3c(c2)n(C)c(=O)n3C)c(C)c1`, 9.64%; with `CC(=O)N1CCN(c2csc3ccc(Cl)cc3c2=O)CC1`, 8.27%.
For `CCCCOC(=O)c1ccc(NC(=O)c2ccc3c(c2)CCN3S(C)(=O)=O)cc1`, the inhibition is -24.7%.
With `Cc1cccc(C(c2sc3nc(-c4ccco4)nn3c2O)N2CCOCC2)c1` (stereo not given) the figure was -21.5%; with `Cc1cccc(CNC(=O)Cn2nc(C)c3nn(-c4ccc(Cl)cc4)c(C)c3c2=O)c1`, 2.87%; with `Cc1c(CNC2CCCCCC2)c(C(=O)O)c(C)n1Cc1cccc(Cl)c1`, -13.7%.
Regarding `Cc1ccccc1Nc1c(-c2c[nH]c3ccccc23)nc2ccc(Cl)cn12`, the inhibition is -8.62%.
For the molecule `O=C(CSc1nc(Nc2ccccc2)c2ccccc2n1)c1ccc(Cl)cc1`, the inhibition came out at 3.48%.
Turning to `Cc1cc(C)cc(NC(=O)NCc2c(-n3cccc3)sc3c2CCCC3)c1`, the inhibition stood at 14.7%.
Turning to `CSc1ncc(Cl)c(C(=O)Nc2c(C(=O)c3ccc(Cl)cc3)oc3ccccc23)n1`, the inhibition was -17.1%.
With `Cc1ccc(-n2ncc(C(=O)N3CCN(c4ccccc4F)CC3)c2C2CCN(C(=O)OC(C)(C)C)CC2)cc1C`, the inhibition is -9.3%.
With `Cc1cccc(OC(=O)CSc2nnc(-c3cccs3)o2)c1C`, the inhibition was 3.61%.
With `Cc1c(NC(=O)Cc2ccc(Cl)cc2)cccc1-c1nc2cccnc2s1`, the inhibition is 3.3%.
For the molecule `CCOC(=O)c1c(C)[nH]c(C)c1S(=O)(=O)NCC(=O)Nc1cccc(Cl)c1`, the inhibition turned out to be 4.35%.
On to `COc1ccc(OC)c(CCNC(=O)c2c(C)oc3ncn(C)c(=O)c23)c1`, for which the inhibition was found to be 0.476%.
Regarding `CCOc1ccc(S(=O)(=O)N(CC(=O)NCCc2ccc(OC)c(OC)c2)c2ccccc2)cc1`, the inhibition is 2.25%.
With `COc1ccc(NC(=O)CN2C(=O)CSc3ccc(S(=O)(=O)N4CCCC4)cc32)cc1OC`, the inhibition is -9.99%.
As for `Cc1ccccc1Cn1c(CN2CCC(C(=O)NCCN(C)C)CC2)cc2ccccc21`, the inhibition was -0.0165%.
The result for `Cc1ccccc1NC(=O)CN1C(=O)C(C)(C)c2ccccc21` reads -0.062%; that for `CCCCNC(=O)c1cnn2c(C)c(Cc3c(F)cccc3Cl)c(C)nc12`, 5.28%.
As for `COc1cccc(NC(=O)c2cc3c(=O)n(C)c4ccccc4c3n2C)c1`, the inhibition is 3.41%.
With `Cc1ccc(CNC(=O)C2CCN(S(=O)(=O)c3ccc4c(c3)CCCN4C(=O)C3CCC3)CC2)cc1`, the inhibition was -0.852%.
As for `CCOc1ccc2c(c1)c(=O)c(S(=O)(=O)c1ccccc1)cn2CC(=O)Nc1ccccc1OC`, the inhibition came to 19.4%.
Take `Cc1nc(-c2ccccc2)sc1CCNS(=O)(=O)c1ccccc1`: the inhibition came to 14.2%.
For the molecule `O=C(NCCSc1c(-c2ccccc2)[nH]c2ccccc12)c1ccc(S(=O)(=O)N2CCOCC2)cc1`, the inhibition was 2.12%.
Consider `O=C(O)c1cc(-c2ccc(C(F)(F)F)cc2)nc2n[nH]c(-c3ccccc3)c12`, for which the inhibition is -3.94%.
As to `CCc1ccc(S(=O)(=O)c2cn(CC)c3cc(N4CCOCC4)c(F)cc3c2=O)cc1`, the inhibition was -21.9%.
With `CC(=O)c1ccc(NC(=O)Cn2cc3c(n2)CCCC3)cc1` the figure was 3.78%; with `CCOc1ccc(CN2CCN(c3ncnc4sc5c(c34)CC(C)CC5)CC2)cc1` (stereo not given), -8.25%.
`COc1cc(Cl)c(CC(=O)c2c[nH]c3ccccc23)cc1OC`: the inhibition is active: 32.5%.
The result for `COc1ccccc1C(=O)Nc1nnc(S(=O)(=O)N(C)c2ccc(Cl)cc2)s1` reads -5.9%; that for `COc1ccc(Cl)cc1NC(=O)c1ccc2c(c1)CCCN2S(C)(=O)=O`, 13.4%.
With `Cc1ccc(-n2ncc(C(=O)NCCCN3CCCCC3)c2C2CCN(C(=O)OC(C)(C)C)CC2)cc1`, the inhibition was found to be 0.663%.
Consider `COc1cccc(OC)c1C(=O)Nc1ccc(S(=O)(=O)Nc2nccc(C)n2)cc1`, for which the inhibition is -12.9%.
Regarding `CCOC(=O)c1c(C)n(-c2ccccc2)c2ccc(OC(=O)c3ccccc3NC(=O)C(C)(C)C)cc12`, the inhibition turned out to be 9.06%.
`Cc1ccc(NC(=O)c2c(C)nc3sc(C(=O)Nc4ccc(F)cc4)c(N)c3c2-c2ccccc2Cl)c(C)c1`: the inhibition was -4.51%.
Regarding `O=C1CSC(=Nc2cccc([N+](=O)[O-])c2)N1`, the inhibition was active: 42.8%.
Turning to `Cc1ccc(N(Cc2cccs2)C(=O)COc2cccc(C)c2)cc1`, the inhibition is 8.84%.
The result for `Cc1cccc(CNC(=O)c2cnc3sc(N4CCCCCC4)nn3c2=O)c1` reads 17.5%; that for `COc1ccc(-c2nsc(NC(=O)c3oc4cc(C)c(C)cc4c3C)n2)cc1`, -4.59%; that for `CC(=O)c1ccc(NC(=O)Cn2c(=O)n(Cc3ccco3)c(=O)c3sc4ccccc4c32)cc1`, 3.94%.
As for `Cc1nn2c(=O)cc(COC(=O)CNC(=O)c3ccc(F)cc3)nc2s1`, the inhibition is -0.154%.
With `COc1ccc(C2=NC(C)(C)N(CC(=O)Nc3ccc(F)c(F)c3)C2=O)cc1` the figure was -1.17%.
Take `CCN1CCN(c2cc(C)c3cc(NC(=O)c4cc(Cl)ccc4OC)ccc3n2)CC1`: the inhibition is -6.37%.
The result for `CCCc1cnc2c(c1SCc1ccc(C(F)(F)F)cc1)c(=O)n(C)c(=O)n2C` reads 9.16%; that for `CCN1C(=O)C2(c3ccccc31)c1c(oc3ccc(F)cc3c1=O)C(=O)N2CCCOC` (stereo not given), 4.81%.
With `CC(C)Oc1ccc(CNC(=O)c2ccc(Cn3c(=O)c4cccn4c4cccnc43)cc2)cc1` the figure was 16.4%.

The values are drawn from PubChem BioAssay AID485344 (National Center for Advancing Translational Sciences (NCATS), 2010).
